Laboratory results as given in PubChem BioAssay AID1030 (National Center for Advancing Translational Sciences (NCATS), 2008).
Hit rate of the full screen: of about 220,000 compounds, about 16,000 (7.3%) were called active. The shares of active, inactive and inconclusive entries below differ from those in the screen. The call rests on the fitted dose curve; in most records, active means well fitted inhibition curve with a large enough effect (not every such curve was filed as active); inconclusive means small, poorly fitted or top-dose-only effect, or another doubt; inactive means no such curve, though single readings can be large or run the other way. Where the call is inconclusive, the potency comes from a doubtful curve fit.

The compounds below were run against Aldehyde dehydrogenase 1A1 (Homo sapiens) (UniProt P00352) (assay: qHTS Assay for Inhibitors of Aldehyde Dehydrogenase 1 (ALDH1A1)). Details: Purified ALDH1A1, NADH fluorescence, propionaldehyde substrate; series mostly up to 75.3 µM.
Potency means the concentration at half of the fitted maximal effect; tags describe the fitted curve by direction and shape.

UniProt P00352, sequence (P00352 whole entry, looked up): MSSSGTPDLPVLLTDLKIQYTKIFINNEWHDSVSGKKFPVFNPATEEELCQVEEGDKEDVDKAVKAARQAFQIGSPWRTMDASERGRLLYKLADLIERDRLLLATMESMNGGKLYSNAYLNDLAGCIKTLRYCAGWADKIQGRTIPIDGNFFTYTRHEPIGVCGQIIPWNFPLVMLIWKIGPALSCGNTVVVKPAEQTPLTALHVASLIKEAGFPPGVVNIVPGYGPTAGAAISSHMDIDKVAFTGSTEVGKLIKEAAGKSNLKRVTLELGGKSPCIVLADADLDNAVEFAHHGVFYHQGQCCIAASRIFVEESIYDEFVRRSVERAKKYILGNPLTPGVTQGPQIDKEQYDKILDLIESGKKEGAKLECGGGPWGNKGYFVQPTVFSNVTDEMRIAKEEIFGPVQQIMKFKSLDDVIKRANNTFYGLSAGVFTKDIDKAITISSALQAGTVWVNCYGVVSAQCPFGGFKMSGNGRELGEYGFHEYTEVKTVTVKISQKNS

Potency, inactive:
COc1ccc(/C=C/C(=O)c2ccc(OC)cc2OC)c(OC)c1
CS(=O)(=O)N1CCC2(CCN(c3ccccc3)CC2)CC1
O=C(CSc1nc(C2CCCCC2)nc2ccccc12)N1CCCC1
Nn1c(Cc2cccc3ccccc23)nnc1SC1CCOC1=O (stereo unspecified)
COc1ccc([N+](=O)[O-])cc1NC(=O)C(C)OC(=O)c1cccnc1 (stereo unspecified)
O=S(=O)(Nc1ccc(O)c(CN2CCCCC2)c1)c1ccccc1
c1cncc(-c2nc3ccccc3[nH]2)c1
Cc1ccc([N+](=O)[O-])cc1-c1ccc(/C=N\n2nnnc2N)o1
Cc1ccc2c(c1)N(C(=O)NC1CCCCC1)C(C)(C)CC2C (stereo unspecified)
COc1ccc(N2CCN(C(=O)c3ccc(N4C(=O)NC5CC4(C)Oc4ccccc45)cc3)CC2)cc1 (stereo unspecified)
Cc1ccccc1-n1c(O)c(/C=C/C=Nc2ccccc2)c(=O)[nH]c1=O

Potency, active:
CCC(C)(C)n1nnnc1CN(Cc1ccc(Cl)cc1)Cc1ccco1 10 µM
O=C(CNC(c1ccccc1)c1ccccc1)Nc1cc([N+](=O)[O-])ccc1Cl 7.08 µM
CCOC(=O)C1CCN(C(=O)CSc2ccc(Br)cc2)CC1 31.6 µM
CCC(c1nnnn1Cc1ccco1)N(CCc1ccccc1)Cc1cc2cccc(C)c2[nH]c1=O (stereo unspecified) 7.94 µM
COc1ccccc1NC(=O)C1=C(C)NC(SCC(=O)c2ccccc2)=C(C#N)C1c1ccco1 (stereo unspecified) 14.1 µM
O=C(COc1cccnc1[N+](=O)[O-])N1N=C(c2ccc(Cl)cc2)CC1c1ccco1 (stereo unspecified) 12.6 µM
O=C1C2C3C=CC(C2C(=O)N1c1cccc(O)c1)C1C2C(=O)N(c4cccc(O)c4)C(=O)C2C31 (stereo unspecified) 1.41 µM

Potency, inconclusive:
Cc1cccc(NC(=S)NNC(=O)CCn2nc(C)c([N+](=O)[O-])c2C)c1 25.1 µM [inhibitor, single point]
Cc1ccc(C2N(c3cccc(Cl)c3)C(=O)C3CCCN32)o1 (stereo unspecified) 44.7 µM [inhibitor, single point]
CNC(=O)/C(C#N)=C/c1ccc(-c2ccccc2[N+](=O)[O-])o1 7.94 µM [inhibitor, full curve]
COc1ccc(-c2cc(C(F)(F)F)nc(SCC(N)=O)n2)cc1 10 µM [inhibitor, partial curve]
CC1(O)c2ccccc2C(=O)N1CCc1ccccc1F (stereo unspecified) 15.8 µM [inhibitor, partial curve]
O=[N+]([O-])c1ccc(O)c(-c2nc(-c3ccccc3)c(-c3cccs3)[nH]2)c1 39.8 µM [inhibitor, single point]
Cc1cccc(C)c1-n1nnnc1S(=O)(=O)Cc1ccccc1Cl 28.2 µM [inhibitor, single point]
COC(=O)c1ccc(NC(=O)c2cc3sccc3n2C)cc1 25.1 µM [inhibitor, partial curve]
CCN1CCCc2cc(CN(CCN3CCOCC3)C(=S)Nc3cc(F)cc(F)c3)ccc21 22.4 µM [inhibitor, single point]
CCn1c(SCC(=O)Nc2nc3ccc(OC)cc3s2)nc2c1c(=O)n(C)c(=O)n2C 39.8 µM [inhibitor, single point]
Cc1ccc(-c2nc(-c3cccnc3)no2)cc1 39.8 µM [inhibitor, single point]
CCCOC(=O)c1ccc(Oc2cn[nH]c2-c2ccc(O)cc2O)cc1 15.8 µM [inhibitor, partial curve]
CCOC(=O)c1nn(-c2ccccc2)c2nnc(Cc3ccccc3)c(=O)n12 10 µM [inhibitor, partial curve]
CN(Cc1ccccc1)Cc1c(F)cccc1F 35.5 µM [inhibitor, single point]
COc1cccc(Nc2nc(NCC3CCCO3)c3ccccc3n2)c1 (stereo unspecified) 22.4 µM [inhibitor, partial curve]
COC(=O)C1=C(N)Oc2cc(C)n(CC3CCCO3)c(=O)c2C1c1ccc(Cl)cc1 (stereo unspecified) 25.1 µM [inhibitor, single point]
COc1ccc(S(=O)(=O)N(CC(=O)Nc2ccc(S(=O)(=O)N3CCOCC3)cc2)Cc2ccc(F)cc2)cc1 25.1 µM [inhibitor, single point]
FC(F)(F)COc1ccc(-c2nnc(SCc3c(Cl)cccc3Cl)o2)cn1 35.5 µM [inhibitor, single point]
Cn1c(=O)c(-c2ccccc2)nc2cnc(N3CCOCC3)nc21 25.1 µM [inhibitor, partial curve]
O=C(Nc1ccccc1)N1CC=C(c2ccccc2)CC1 25.1 µM [inhibitor, single point]
O=C(NCCNc1ccc([N+](=O)[O-])cc1)c1ccccc1Br 25.1 µM [inhibitor, single point]
Cc1cccc(OCC(=O)Nc2ccc(S(=O)(=O)N3CCCC3)cc2)c1 25.1 µM [inhibitor, partial curve]
COc1ccc2nc(C(F)(F)C(F)(F)F)c(C#N)c(N)c2c1 35.5 µM [inhibitor, single point]
Cc1cccn2cc(-c3ccccc3)nc12 35.5 µM [inhibitor, single point]
CCOC(=O)c1cc(CC)sc1NC(=O)c1cc(OC)c(OC)c(OC)c1 35.5 µM [inhibitor, partial curve]
Cc1cc(S(=O)(=O)Nc2c(C(=O)O)[nH]c3ccccc23)ccc1F 35.5 µM [inhibitor, single point]
CN(C)S(=O)(=O)c1cccc(NC(=S)N/N=C/C2CC=CCC2)c1 (stereo unspecified) 25.1 µM [inhibitor, single point]
C=CCN1C(=O)/C(=C/c2cccs2)S/C1=N\S(=O)(=O)c1ccc(F)cc1 0.398 µM [inhibitor, full curve]
